In the supplement of paper PMC6089552:
About 300 (9.4%) of roughly 3,200 compounds showed activity. Only a part is listed here, and it is no random draw.

Tested on: A673/TR/shEF
Experiment: cell viability (LOESS-normalised, relative to median of negative controls) (log2 ratio); higher = more viable cells (less compound effect), active = hit call of the paper (over 3 MAD below the median)
Settings: treatment time: 72 h
How it was run: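 Viability of A673/TR/shEF Ewing sarcoma cells was determined by CellTiter-Glo luminescence. The cells, at 1,500 per well in 384-well plates, were grown with or without doxycycline from 24 h before compound addition to switch on EWS-FLI1 shRNA knockdown, then exposed for three days to library compounds at two or more concentrations or to DMSO controls. Signals were LOESS-corrected plate by plate, normalised to the negative-control median and log2-transformed.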

[1] = 0.25 µM, library screen: screen1, EWS-FLI1 expression: high (no doxycycline)
[2] = 0.25 µM, library screen: screen1, EWS-FLI1 expression: low (doxycycline-induced shRNA knockdown)
[3] = 2.5 µM, library screen: screen1, EWS-FLI1 expression: high (no doxycycline)
[4] = 2.5 µM, library screen: screen1, EWS-FLI1 expression: low (doxycycline-induced shRNA knockdown)
[5] = 0.25 µM, library screen: screen2, EWS-FLI1 expression: high (no doxycycline)
[6] = 0.25 µM, library screen: screen2, EWS-FLI1 expression: low (doxycycline-induced shRNA knockdown)
[7] = 2.5 µM, library screen: screen2, EWS-FLI1 expression: high (no doxycycline)
[8] = 2.5 µM, library screen: screen2, EWS-FLI1 expression: low (doxycycline-induced shRNA knockdown)
[9] = 0.103 µM, library screen: screen3, EWS-FLI1 expression: high (no doxycycline)
[10] = 0.103 µM, library screen: screen3, EWS-FLI1 expression: low (doxycycline-induced shRNA knockdown)
[11] = 0.308 µM, library screen: screen3, EWS-FLI1 expression: high (no doxycycline)
[12] = 0.308 µM, library screen: screen3, EWS-FLI1 expression: low (doxycycline-induced shRNA knockdown)
[13] = 0.926 µM, library screen: screen3, EWS-FLI1 expression: high (no doxycycline)
[14] = 0.926 µM, library screen: screen3, EWS-FLI1 expression: low (doxycycline-induced shRNA knockdown)
[15] = 2.8 µM, library screen: screen3, EWS-FLI1 expression: high (no doxycycline)
[16] = 2.8 µM, library screen: screen3, EWS-FLI1 expression: low (doxycycline-induced shRNA knockdown)
[17] = 8.3 µM, library screen: screen3, EWS-FLI1 expression: high (no doxycycline)
[18] = 8.3 µM, library screen: screen3, EWS-FLI1 expression: low (doxycycline-induced shRNA knockdown)
[19] = 25 µM, library screen: screen3, EWS-FLI1 expression: high (no doxycycline)
[20] = 25 µM, library screen: screen3, EWS-FLI1 expression: low (doxycycline-induced shRNA knockdown)

Measured: cell viability (log2)

Oc1cc2c(cc1O)[C@@H]1c3ccc(O)c(O)c3OC[C@]1(O)C2
inactive: [1] -0.00452 | [2] 0.0855 | [3] 0.0593 | [4] 0.105

O=c1c(-c2cc(O)c(O)c(O)c2)coc2cc(O)c(O)c(O)c12
inactive: [1] 0.0125 | [2] 0.0303 | [3] 0.111 | [4] 0.0681

C/C=C(/C)C(=O)O[C@H]1[C@H](OC(C)=O)[C@]2(CO)[C@H](O)C[C@]3(C)C(=CC[C@@H]4[C@@]5(C)CC[C@H](O[C@@H]6O[C@H](C(=O)O)[C@@H](O[C@@H]7O[C@H](CO)[C@@H](O)[C@H](O)[C@H]7O)[C@H](O)[C@H]6O[C@@H]6O[C@H](CO)[C@@H](O)[C@H](O)[C@H]6O)[C@](C)(CO)[C@@H]5CC[C@]43C)[C@@H]2CC1(C)C.C/C=C(\C)C(=O)O[C@H]1[C@H](OC(C)=O)[C@@]2(CO)C(CC1(C)C)C1=CCC3[C@@]4(C)CC[C@H](O[C@@H]5O[C@H](C(=O)O)[C@@H](O[C@@H]6O[C@H](CO)[C@@H](O)[C@H](O)[C@H]6O)[C@H](O)[C@H]5O[C@@H]5O[C@H](CO)[C@@H](O)[C@H](O)[C@H]5O)[C@](C)(CO)C4CC[C@@]3(C)[C@]1(C)C[C@H]2O
inactive: [1] 0.0112 | [2] -0.0408 | [3] 0.0934 | [4] 0.0403

CC(C)CCC[C@@H](C)C1CC[C@H]2[C@@H]3CCC4=CC(=O)C=C[C@]4(C)[C@H]3CC[C@]12C (stereo not given in full)
inactive: [1] 0.107 | [2] 0.0599 | [3] 0.105 | [4] 0.0638

c1ccc2nc(C3=NCCN3)ccc2c1
inactive: [5] 0.245 | [6] 0.115 | [7] 0.149 | [8] 0.0346

CC(C)(C)c1ccc(C(O)CCCN2CCC(C(O)(c3ccccc3)c3ccccc3)CC2)cc1 (stereo not given)
inactive: [1] 0.12 | [2] 0.0182 | [5] 0.13 | [6] 0.0514 | [3] 0.155 | [4] 0.0701 | [7] 0.115 | [8] 0.121

CC(COc1ccccc1)NC(C)C(O)c1ccc(O)cc1 (stereo not given)
inactive: [1] 0.163 | [2] 0.0434 | [3] 0.178 | [4] 0.141

Cc1cc(=O)oc2c(O)c(O)ccc12
active: [1] -0.0965
inactive: [2] -0.0218 | [3] 0.0459 | [4] 0.107

CC12CCCC(O)(C1)C1CC(C)(C)C1CC2 (stereo not given)
inactive: [1] 0.066 | [2] -0.02 | [3] 0.0972 | [4] 0.0732

CC1(C)[C@@H](O)CC[C@]2(C)[C@H]3C(=O)C=C4[C@H]5C[C@@](C)(C(=O)O)CC[C@]5(C)CC[C@@]4(C)[C@]3(C)CC[C@@H]12
inactive: [1] 0.0636 | [2] 0.00472 | [3] 0.0997 | [4] 0.00867

CCCCN1CCCCC1C(=O)Nc1c(C)cccc1C (stereo not given)
inactive: [9] 0.00164 | [10] 0.0668 | [1] 0.0866 | [2] 0.0118 | [11] 0.104 | [12] 0.0911 | [13] 0.0187 | [14] 0.0271 | [3] 0.0729 | [4] 0.0348 | [15] 0.069 | [16] 0.0597 | [17] 0.0524 | [18] 0.0226 | [19] -0.0308 | [20] 0.0529

CCOC(=O)NNc1nncc2ccccc12
inactive: [1] 0.0833 | [2] 0.0551 | [3] 0.0996 | [4] 0.0515

O=c1cccc2cc(O)c(O)c(O)c2c1O
inactive: [1] -0.000737 | [2] -0.0453 | [3] 0.0367 | [4] 0.0294

S=c1[nH]c2ccccc2s1
inactive: [1] 0.0991 | [2] 0.0131 | [3] 0.0972 | [4] 0.000826

CC(=O)O[C@@H]1CC2C(C)(CC[C@H](O)C2(C)C)C2CC[C@]3(C)C(=CC(=O)O[C@H]3c3ccoc3)C21C (stereo not given in full)
inactive: [1] 0.0235 | [2] 0.0343 | [3] 0.111 | [4] 0.124

CC(C)CCC[C@@H](C)[C@H]1CC[C@H]2[C@@H]3CC[C@H]4C[C@@H](O)CC[C@]4(C)[C@H]3CC[C@]12C
inactive: [1] 0.0663 | [2] 0.113 | [3] 0.0848 | [4] 0.113

CC1=C(CCC(=O)O)c2cc3nc(cc4[nH]c(cc5[nH]c(cc1n2)c(C)c5C(C)O)c(C)c4C(C)O)C(C)=C3CCC(=O)O (stereo not given)
inactive: [1] 0.0188 | [2] -0.0279 | [3] 0.0578 | [4] 0.0876

CC(=O)c1c(O)c(C)c(O)c2c1oc1c(C(C)=O)c(O)c(C)c(O)c12
inactive: [1] 0.0278 | [2] -0.0408 | [3] 0.0533 | [4] 0.172

COc1ccc([C@@H]2CC(=O)c3c(O)cc(O)cc3O2)cc1O
inactive: [1] 0.00579 | [2] 0.0571 | [3] 0.135 | [4] -0.0786

CC1=C(/C=C/C(C)=C/C=C/C(C)=C/C=C/C=C(C)/C=C/C=C(C)/C=C/[C@@]23O[C@]2(C)C[C@@H](O)CC3(C)C)C(C)(C)C[C@H](O)C1
inactive: [1] 0.0858 | [2] 0.0984 | [3] 0.143 | [4] 0.132

C[N+]1(C)CCC(OC(=O)C(c2ccccc2)c2ccccc2)CC1
inactive: [5] 0.105 | [6] 0.109 | [7] 0.164 | [8] 0.111

CC(C)[C@@H](C)C=C[C@@H](C)[C@H]1CC[C@H]2C3=CCC4CC(=O)CC[C@]4(C)[C@H]3CC[C@]12C (stereo not given in full)
inactive: [1] 0.0656 | [2] 0.0592 | [3] 0.126 | [4] 0.0808

Cc1[nH]ccc2c1[nH]c1cc(=O)ccc12
inactive: [1] 0.0692 | [2] -0.0204 | [3] 0.0627 | [4] 0.0642

CC(=O)Oc1ccccc1C(=O)Nc1ncc([N+](=O)[O-])s1
inactive: [9] 0.122 | [10] -0.0727 | [11] 0.204 | [12] 0.0472 | [13] 0.0737 | [14] 0.0817 | [15] 0.174 | [16] 0.0984 | [17] 0.0642 | [18] 0.119 | [19] 0.0779 | [20] 0.11
